Source: PubChem BioAssay AID1347073 (National Center for Advancing Translational Sciences (NCATS), 2019)
The whole screen tested about 45,000 compounds, of which about 200 (0.44%) were called active. Another 7% or so got no clear call; they are omitted. Calls follow the shape of the dose curve; as a rule, active = well fitted activation curve with a large enough effect; inconclusive = small, poorly fitted or top-dose-only effect; inactive = no such curve, though single readings can be large or run the other way. This is one part of the list.

Assay: qHTS of TDP-43 Inhibitors: NCGC Sytravon Library Screen; also: 0% is about no effect; nearly all actives have a fitted effect of over 55% in size
Settings: yeast TDP-43 toxicity rescue, BacTiter-Glo growth, 24 h; series mostly up to 46.1 µM; growth rescue (activation): at the top concentration
Method in brief: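 TDP-43-expressing yeast, pregrown in raffinose, seeded at OD600 0.02 in galactose medium with compound for 24 hr at 30 deg C. Growth read by BacTiter-Glo luminescence, so rescue of toxicity appears as activation.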

SMILES | growth rescue (activation) | Potency
CC1=CC(C)C2(CO)COC(c3ccc(O)cc3)C1C2C (centres undefined) | inactive: 2.64% | 
OC(COC(c1ccc(Cl)cc1)c1ccc(Cl)cc1)CN1CCN(c2ccccn2)CC1 (centres undefined) | inactive: 7.8% | 
C=CCn1c(C(CCCC)CC(O)COCC(C)C)n[nH]c1=S (centres undefined) | inactive: 6.46% | 
CC12CCC(=O)C=C1CCC1C2CCC2(C)C1CC[C@]2(O)C(=O)CO (some centres undefined) | inactive: 15.4% | 
CC(C(=O)O)N1C(=O)/C(=C/c2cccn2C)SC1=S (centres undefined) | inactive: 35.8% | 
O=C(/C=C/c1ccccc1)NC1CC2CCC1C2 (centres undefined) | inactive: 4.67% | 
Cc1ccc(N/N=C/c2ccc3c(c2)OCCO3)cc1Cl | inactive: -5.84% | 
COc1cc(/C=N/NC(=O)CCNC(=O)c2ccccc2Cl)ccc1O | inactive: -5.27% | 
O=C(CCC(=O)OCC(F)(F)C(F)F)Nc1ccc(F)cc1F | inactive: 6.63% | 
O=C(c1cccc(Cl)c1)N1CCN(c2ncnc3c2cnn3-c2ccccc2)CC1 | inactive: 9.24% | 
O=C(Nc1ccc(Cl)c(Cl)c1)N1CCC(N2CCCCC2)CC1 | inactive: 5.6% | 
COc1cccc(C(=O)Nc2ccc(S(=O)(=O)Nc3cc(C)nc(C)n3)cc2)c1 | inactive: 10.9% | 
CC(C)C(NC(=O)C1CCCCC1)C(=O)NC1=NCCS1 (centres undefined) | inactive: 9.68% | 
COc1ccccc1/C=C/C=NC1C(=O)N(c2ccccc2)[N+](C)=C1C (centres undefined) | inactive: -12.7% | 
O=C(OCc1ccccc1)c1cnc(Cl)c(Cl)c1 | inactive: 1.72% | 
O=C(COc1ccc(/C=N/NC(=O)c2ccncc2)cc1)Nc1ccccc1 | inactive: 13.4% | 
COCCCNC(=O)CCCn1c(=O)c2ccccc2n(Cc2cccc([N+](=O)[O-])c2)c1=O | inactive: 25.9% | 
O=C(Cc1cc(=O)[nH][nH]1)N/N=C/c1c(Cl)cccc1Cl |  | inactive
COc1cccc(NC2c3ccccc3C(=O)N2Cc2ccccc2Cl)c1 (centres undefined) | inactive: 1.1% | 
O=C(NC1CCOC1)c1ccc(OC2CCN(CCc3ccccc3)CC2)cc1 (centres undefined) | inactive: 3.9% | 
CCN(Cc1nc(-c2ccc(OC)cc2)no1)C(=O)c1ccoc1C | inactive: 21.8% | 
OCC1(Cc2ccc(Cl)cc2)CCN(CCCc2ccccc2)CC1 | inactive: -9.41% | 
O=C(NCc1ccco1)C1CCCN1C(=O)Nc1ccc(Br)cc1 (centres undefined) | inactive: -1.5% | 

SMILES | growth rescue (activation) | Potency
CCS(=O)(=O)N1CCC(C(=O)NCc2ccc(OC)cc2)CC1 | inactive: 9.74% | 
Cc1cccn2c(=O)c3cc(C#N)c(=NC(=O)c4cccs4)n(CC(C)C)c3nc12 | inactive: -4.55% | 
Cc1ccc(C)c(CN2C(=O)c3ccccc3S(=O)(=O)c3ccc(C(=O)N4CCc5ccccc54)cc32)c1 | inactive: 13.5% | 
Cc1cc(C(=O)Nc2ccccc2C(=O)O)ccc1NC(=O)COc1cccc([N+](=O)[O-])c1 | inactive: 14.3% | 
Cc1nn(C)c(Cl)c1CN1CCC(Oc2ccc(C(=O)N3CCCC3)cc2)CC1 | inactive: 7.74% | 
COc1ccc(C2C3=C(NCCN=C3c3ccccc3)C(=O)N2c2ccccc2)c(OC)c1 (centres undefined) | inactive: 0.216% | 
COc1ccc(CCNC(=O)CN(c2cccc([N+](=O)[O-])c2)S(C)(=O)=O)cc1 | inactive: 14.8% | 
O=C1CCC(C(=O)N2CCc3ccccc3C2)CN1CCCN1CCOCC1 (centres undefined) | inactive: 5.38% | 
CCCCOc1ccc(Cc2cnc(N)nc2N)cc1 | inactive: 15.3% | 
COc1ccc(-c2cc(-c3cccs3)nc(OC)c2C#N)cc1OC | inactive: 18.5% | 
Nc1cc(S(=O)(=O)N2CCOCC2)ccc1Oc1cccc(Br)c1 | inactive: 8.38% | 
Cc1ccc(/C=C(/NC(=O)c2ccccc2)C(=O)NC(Cc2c[nH]c3ccccc23)C(=O)O)cc1 (centres undefined) | inactive: 8.72% | 
Cc1cccc(C)c1NC(=S)NC(=O)c1ccccc1F | inactive: 15.8% | 
COc1cc(/C=N/n2c(C)n[nH]c2=S)ccc1OCc1ccccc1 | inactive: 11.5% | 
COc1ccc(-c2csc(NC(=O)CSc3ccc(Br)cc3)n2)c(OC)c1 | inactive: 3.65% | 
CN1CCN(c2ncnc3c2ncn3[C@H]2CN(Cc3ccncc3)C[C@@H](CO)O2)CC1 | inactive: -4.42% | 
CCC(C)NC(=O)NC(=O)CSc1nnc(-c2ccccc2F)n1C1CC1 (centres undefined) | inactive: -18.5% | 
O=C(NC1CCS(=O)(=O)C1)C1CCCN(S(=O)(=O)c2ccc(Cl)cc2)C1 (centres undefined) | inactive: -21.6% | 
CC1CC(=O)Nc2ccccc2N1C(=O)CSc1ccc2ccccc2n1 (centres undefined) | inactive: -7.96% | 
Cc1ccccc1OCC(=O)Nc1ccccc1-c1ccccc1NC(=O)COc1ccccc1C | inactive: 8.49% | 
O=S(=O)(Nc1ccc(Oc2ncccn2)c(Cl)c1)c1ccc(F)cc1 | inactive: 39% | 
Oc1ccc(N2CCN(C(=S)NCc3ccccc3)CC2)cc1 | inactive: 7.79% | 
Cc1ccc(N(CC(=O)N/N=C/c2cccc(Br)c2)S(C)(=O)=O)cc1 | inactive: -22.3% | 

SMILES | growth rescue (activation) | Potency
Cc1cc(C)cc(NS(=O)(=O)c2cccs2)c1 | inactive: 2.79% | 
Cc1ccc(C(=O)N[C@H](C(=O)OCC(=O)c2ccc[nH]2)C(C)C)cc1 | inactive: -8.75% | 
COCc1cccc(NC(=O)CCc2ccccc2)c1 | inactive: 6.15% | 
O=C(CSc1nnnn1C1CCCC1)NCCc1ccccc1 | inactive: 3.3% | 
O=c1c2ccccc2cnn1Cc1n[nH]c(=S)n1-c1ccccc1F | inactive: 4.93% | 
COC(=O)N1CCN(CCc2ccccc2)CC1 | inactive: 7.48% | 
CCC(=O)NC(=S)Nc1ccc(NC(=O)c2ccc(OC)cc2)cc1 | inactive: 26.2% | 
Cc1cc(C(=O)CN2CCC(C)CC2)c(C)n1-c1ccccc1F | inactive: -0.572% | 
O=[N+]([O-])c1ccc(S(=O)(=O)Nc2nnc(C3CCCCC3)s2)cc1 | inactive: 11.9% | 
CCCOc1ccc(C2Nc3cccc4cccc(c34)N2)cc1 | inactive: 17.2% | 
O=c1c(C=NCCCO)c(-c2ccccc2)[nH]n1-c1nc2ccccc2s1 | inactive: -4.54% | 
O=C1CCCC(O)=C1N=Nc1ccc(Cl)c(Cl)c1 | inactive: 14.2% | 
C=CCC(C(=O)c1ccccc1)[N+](C)(C)CC=C (centres undefined) | inactive: -21.4% | 
CC1CCCN(Cc2nc(Cc3ccccc3Cl)no2)C1 (centres undefined) | inactive: -0.891% | 
O=C(CN1CCCCCC1)Nc1ccc(Oc2ccccc2)cc1 | inactive: 9.3% | 
C/C=C/c1ccc(OCCCCOc2ccc(OC)cc2)c(OC)c1 | inactive: 10% | 
Cc1nn(C)cc1CN(C)C(=O)c1cc2nc(-c3ccco3)cc(C(F)(F)F)n2n1 | inactive: 26.6% | 
O=C(O)CC1c2ccccc2CCN1S(=O)(=O)c1ccc(F)cc1 (centres undefined) | inactive: 3.47% | 
Cc1cccc(C)c1NC(=O)CS(=O)CC(=O)Nc1ccc(N2CCOCC2)cc1 (centres undefined) | inactive: -3.11% | 
COC(=O)c1cccc(NC(=O)C2COc3ccccc3O2)c1C (centres undefined) | inactive: 34.8% | 
COc1cccc(CNc2nc3nc4c(c(=O)n3[nH]2)CCC4)c1 | inactive: -3.89% | 
N#Cc1ccccc1NC(=O)COC(=O)CCc1ccccc1 | inactive: 33.3% | 
O=C(CN1CCC(C(=O)c2ccc3c(c2)OCCO3)CC1)NCc1ccccc1 | inactive: 8.98% | 
